In the supplement of paper PMC7726561 one finds thermal melting temperature data, which are given here for 36 sequences.

Over roughly 1,100 sequences, “thermal melting temperature (Tm) of peptide-HLA complex” has its median near 58; the lowest 2% begin near 42. The list shows a part of the results.

B1: unnamed (peptide)
chain: AIVGAVRLLSV
B2: unnamed (peptide)
chain: VLLGEVNIRL
B3: unnamed (peptide)
chain: ALFPHLLQPVL
B4: unnamed (peptide)
chain: ALAEMPDSAAA
B5: unnamed (peptide)
chain: KLIDYIYTA
B6: unnamed (peptide)
chain: FAPPQPVAA
B7: unnamed (peptide)
chain: FLETNVPLL
B8: unnamed (peptide)
chain: FLLEQEKTQAL
B9: unnamed (peptide)
chain: FLSSVIQNL
B10: unnamed (peptide)
chain: SLIRNLEQL
B11: unnamed (peptide)
chain: ILAELPEDFKA
B12: unnamed (peptide)
chain: KILEDVVGV
B13: unnamed (peptide)
chain: AMWEHPITA
B14: unnamed (peptide)
chain: TLTSKLYSL
B15: unnamed (peptide)
chain: LLIENVASL
B16: unnamed (peptide)
chain: VTTDIQVKV
B17: unnamed (peptide)
chain: YLHDQNPDAAL
B18: unnamed (peptide)
chain: QMISRIEYV
B19: unnamed (peptide)
chain: SILEHQIQV
B20: unnamed (peptide)
chain: YLVEGRFSV
B21: unnamed (peptide)
chain: ALPPVLTTV
B22: unnamed (peptide)
chain: ALLQQVHSA
B23: unnamed (peptide)
chain: KVLGALLFV
B24: unnamed (peptide)
chain: TLDEKIEKV
B25: unnamed (peptide)
chain: FLVTVIHTL
B26: unnamed (peptide)
chain: LTDQTLIYL
B27: unnamed (peptide)
chain: VLVDRTIYI
B28: unnamed (peptide)
chain: FLDITNPKAV
B29: unnamed (peptide)
chain: YLADIFTKL
B30: unnamed (peptide)
chain: LLDRFLATV
B31: unnamed (peptide)
chain: KQTDLEITV
B32: unnamed (peptide)
chain: YVPETVYRV
B33: unnamed (peptide)
chain: LLPELRDWGV
B34: unnamed (peptide)
chain: GLLETTVQKV
B35: unnamed (peptide)
chain: LLFPESIRV
B36: unnamed (peptide)
chain: SLVQRVETI
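Note: cell lysates heated 10 min at 37–73 °C, remaining pHLA pulled down with pan-class I antibody, peptides quantified by DIA-MS versus 37 °C, Tm where half the complex is lost.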

The experiment addresses HLA-A*02:01. Kind of experiment: thermal melting temperature (Tm) of peptide-HLA complex; higher = more thermostable pHLA complex. Conditions: C1R-A*02:01.
B1 registered a thermal melting temperature of 58.3 °C.

In turn, B2 registered a thermal melting temperature of 55.2 °C. B3 returned a thermal melting temperature of 62 °C. Turning to B4, the thermal melting temperature came to 52.6 °C.

Turning to B5, the thermal melting temperature amounted to 63 °C. Next, B6: 54.7 °C; B7: 49.9 °C. B8 yielded a thermal melting temperature of 59 °C. To B9 belongs 58.3 °C; to B10, 51.2 °C. B11 displayed a thermal melting temperature of 63.2 °C. To B12 belongs 61.3 °C; to B13, 61.4 °C; to B14, 55.2 °C. To B15 belongs 56.8 °C. Next, B16: 47.3 °C; B17: 59 °C; B18: 59.7 °C.

B19 showed a thermal melting temperature of 56.9 °C. In the case of B20, the thermal melting temperature stood at 63.5 °C. B21 displayed a thermal melting temperature of 60.4 °C.

With B22, the thermal melting temperature worked out at 58.2 °C. B23 returned a thermal melting temperature of 58.7 °C. Next, B24: 57.8 °C; B25: 61 °C; B26: 52.6 °C.

Take B27: the thermal melting temperature stood at 61.6 °C. Next, B28: 40.7 °C; B29: 62.9 °C.

Consider B30, for which the thermal melting temperature came out at 64.2 °C.

As to B31, the thermal melting temperature worked out at 57.5 °C. To B32 belongs 53.1 °C. With B33, the thermal melting temperature worked out at 59.1 °C. To B34 belongs 53.7 °C. Next, B35: 58.8 °C. To B36 belongs 52.3 °C.
